According to publication PMC4336329 (PLoS ONE, 2015):
In all, about 310,000 compounds went through this assay and about 2,200 (0.71%) showed an effect of 50% or more. Effects have a minus sign here. This is one part of the list.

Target: human ether-à-go-go-related gene (hERG) potassium channel (human, UniProt Q12809)
Test: primary screen, population patch clamp on CHO cells stably expressing hERG

Sequence of human ether-à-go-go-related gene (hERG) potassium channel (Q12809 whole entry, looked up): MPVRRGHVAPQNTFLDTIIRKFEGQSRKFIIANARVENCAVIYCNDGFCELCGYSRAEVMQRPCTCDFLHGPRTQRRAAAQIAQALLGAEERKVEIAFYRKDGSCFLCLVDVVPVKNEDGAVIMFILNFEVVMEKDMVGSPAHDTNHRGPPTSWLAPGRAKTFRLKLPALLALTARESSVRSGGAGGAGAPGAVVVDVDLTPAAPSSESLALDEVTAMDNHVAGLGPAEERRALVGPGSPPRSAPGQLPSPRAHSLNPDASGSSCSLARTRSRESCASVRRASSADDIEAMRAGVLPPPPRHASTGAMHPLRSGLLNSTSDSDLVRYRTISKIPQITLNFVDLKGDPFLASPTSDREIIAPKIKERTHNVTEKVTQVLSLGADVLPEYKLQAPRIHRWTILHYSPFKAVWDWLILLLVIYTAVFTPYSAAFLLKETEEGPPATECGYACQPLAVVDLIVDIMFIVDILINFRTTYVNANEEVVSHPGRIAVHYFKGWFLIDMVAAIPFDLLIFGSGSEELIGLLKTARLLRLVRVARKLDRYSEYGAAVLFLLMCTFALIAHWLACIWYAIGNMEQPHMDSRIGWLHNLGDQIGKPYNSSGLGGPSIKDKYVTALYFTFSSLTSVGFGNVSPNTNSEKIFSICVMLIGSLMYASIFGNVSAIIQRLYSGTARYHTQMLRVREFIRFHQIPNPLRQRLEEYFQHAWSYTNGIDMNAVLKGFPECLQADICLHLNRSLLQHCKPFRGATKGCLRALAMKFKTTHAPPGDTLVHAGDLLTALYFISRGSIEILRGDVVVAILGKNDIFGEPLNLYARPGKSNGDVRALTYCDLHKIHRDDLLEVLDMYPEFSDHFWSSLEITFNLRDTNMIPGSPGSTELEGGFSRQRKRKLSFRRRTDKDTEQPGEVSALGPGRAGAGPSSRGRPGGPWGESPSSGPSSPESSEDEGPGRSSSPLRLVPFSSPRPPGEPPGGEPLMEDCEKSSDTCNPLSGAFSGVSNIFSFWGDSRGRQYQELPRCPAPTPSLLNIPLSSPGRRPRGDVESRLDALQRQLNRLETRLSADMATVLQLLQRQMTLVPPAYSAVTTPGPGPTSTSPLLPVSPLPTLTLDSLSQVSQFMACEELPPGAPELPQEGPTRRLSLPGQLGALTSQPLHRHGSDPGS

Compared with `Cc1ccc2c(CNCc3ccco3)cc(=O)oc2c1`, `Cc1ccc(C)c(NC(=O)Cc2csc(-c3ccccc3)n2)c1` is higher in “hERG current change (%, negative = inhibition) at 1uM” value: -1.01% for the first, -0.929% for the second.

First: Cc1c(Cl)cn2c(=O)cc(CN(C)Cc3nc4ccccc4c(=O)[nH]3)nc2c1Cl
Second: Cc1nc2ccc([N+](=O)[O-])cc2c(=O)n1Cc1ccc(Cl)cc1
The “hERG current change (%, negative = inhibition) at 1uM” value of the first is lower: -5.39% for the first, 10.5% for the second.

First: CCOP(=O)(c1ccc(N(C)C)cc1)C(O)c1c(Cl)cccc1Cl (centres unmarked)
Second: O=C(COc1ccc(Cl)cc1)NCCSCc1cccc(Cl)c1
The “hERG current change (%, negative = inhibition) at 1uM” value of the first is lower: -1.75% for the first, 0.26% for the second.

Compared with `O=C(CSc1nnc(CNC(=O)c2c(F)cccc2F)o1)NCc1ccc(F)cc1`, `O=C(CN(C(=O)CCC(=O)Nc1nccs1)c1ccccc1F)NCc1ccc(F)cc1` is lower in “hERG current change (%, negative = inhibition) at 1uM” value: 10.7% for the first, 7.27% for the second.

Compared with `Cn1cc(Br)c(C(=O)N/N=C/c2cccc(OC3CSC3)c2)n1`, `CSCC(=O)N1CCC(Oc2cccc(C(=O)NCc3ccccn3)c2)CC1` is higher in “hERG current change (%, negative = inhibition) at 1uM” value: 3.34% for the first, 15.6% for the second.

First: CCN(CC)S(=O)(=O)c1cccc(-n2c(O)c(C=Nc3ccccc3C(=O)O)c3ccccc3c2=O)c1
Second: O=C(Cn1cnc2cc([N+](=O)[O-])ccc2c1=O)Nc1ccccc1-c1ccccc1
The “hERG current change (%, negative = inhibition) at 1uM” value of the first is higher: 6.37% for the first, 3.1% for the second.

Compared with `CC(=O)c1ccc(NS(=O)(=O)c2ccc3ccccc3c2)cc1`, `COC(=O)c1ccc(NC(=O)Nc2ccc([N+](=O)[O-])cc2)cc1` is higher in “hERG current change (%, negative = inhibition) at 1uM” value: 5.22% for the first, 10.9% for the second.

Compared with `O=C1NC(c2cccs2)C(C(=O)c2ccccc2)C(O)(C(F)(F)F)N1` (centres unmarked), `O=C(CNC(=O)c1ccco1)OCC(=O)c1ccccc1` is higher in “hERG current change (%, negative = inhibition) at 1uM” value: 10.5% for the first, 17.6% for the second.

First: CCOC(=O)C1C(c2ccc(OC)c(OC)c2)c2c([nH][nH]c2=O)CC1(C)O (centres unmarked)
Second: CCOC(=O)c1cc(-c2ccccc2)n(CC(=O)Nc2cc(OC)cc(OC)c2)c1C
The “hERG current change (%, negative = inhibition) at 1uM” value of the first is lower: 9.25% for the first, 16% for the second.

Compared with `CCOC(=O)c1[nH]c(C)c(/C(O)=C2\C(=O)C(=O)N(CCCN(C)C)C2c2cccnc2)c1C` (centres unmarked), `CCOC(=O)c1[nH]c(C)c(/C(O)=C2\C(=O)C(=O)N(CCCN(CC)CC)C2c2cccnc2)c1C` (centres unmarked) is lower in “hERG current change (%, negative = inhibition) at 1uM” value: 6.37% for the first, 4.8% for the second.

Compared with `COc1cccc(OCc2nnc(SCC(=O)OC3CCCCC3)n2C)c1`, `CCOc1cccc(-c2nnc(SCC(=O)NC3CC3)n2C)c1` is lower in “hERG current change (%, negative = inhibition) at 1uM” value: 8.11% for the first, -0.121% for the second.

Going from `CCN1CCN(C(c2ccccc2)c2sc3nc(C)nn3c2O)CC1` (centres unmarked) to `CCCCC(=O)C1CCN(Cc2ccccc2)CC1`, the “hERG current change (%, negative = inhibition) at 1uM” value falls from 3.27% to -11%.

Going from `Cn1cccc1/C=N/NC(=O)c1ccncc1` to `C/C(CC(=O)Nc1ccccc1C#N)=N\NC(=O)c1ccncc1`, the “hERG current change (%, negative = inhibition) at 1uM” value falls from 10.2% to 9.16%.

First: CC(=N\NC(=O)c1cc(Br)ccc1O)/C(=N/O)C(=O)Nc1ccccc1
Second: O=C(Cc1cccc2ccccc12)Nc1ccc(O)cc1C(=O)O
The “hERG current change (%, negative = inhibition) at 1uM” value of the first is higher: 31.2% for the first, 13% for the second.

First: COC(=O)CSc1nnc2cc(C)c3ccccc3n12
Second: Cc1cc(CSc2ccccc2C(=O)O)on1
The “hERG current change (%, negative = inhibition) at 1uM” value of the first is lower: 3.72% for the first, 11.6% for the second.

First: CCOc1ccccc1NC(=O)Cn1c(=O)oc2ccccc21
Second: CC(=O)NCCc1nc2ccccc2n1CCCCOc1ccccc1
The “hERG current change (%, negative = inhibition) at 1uM” value of the first is lower: 8.7% for the first, 10.5% for the second.

Going from `Cc1ccc(C)c(NC(=O)CCC(=O)NNS(=O)(=O)c2ccc(Cl)cc2)c1` to `CN(CC(=O)NCCc1ccc(S(N)(=O)=O)cc1)Cc1ccc(Cl)cc1Cl`, the “hERG current change (%, negative = inhibition) at 1uM” value falls from 5.02% to 4.62%.

Going from `CCCOc1ccccc1OCC(=O)N1CCN(S(=O)(=O)c2ccc(Cl)cc2)CC1` to `COc1ccccc1CNC(=O)C1CCCCN1S(=O)(=O)c1ccccc1` (centres unmarked), the “hERG current change (%, negative = inhibition) at 1uM” value falls from 7.66% to -11.4%.

Compared with `COc1ccc(CCNC(=O)Cn2c(=O)c3cccn3c3cccnc32)c(OC)c1OC`, `O=C(Cn1ncc2c3ccccc3n(Cc3ccccc3F)c2c1=O)NCC1CCCO1` (centres unmarked) is higher in “hERG current change (%, negative = inhibition) at 1uM” value: 7.3% for the first, 19.1% for the second.

Compared with `Cc1ccc(S(=O)(=O)N2CCCC(C(=O)NC3CCCC3)C2)cc1` (centres unmarked), `O=C(/C=C/c1ccccc1Cl)NC1CCCCC1` is lower in “hERG current change (%, negative = inhibition) at 1uM” value: 14% for the first, 12.8% for the second.

First: O=C(c1ccc(F)c(F)c1)N1CCCc2ccccc21
Second: O=P1(Nc2ccc(F)cc2)COc2ccccc2OC1
The “hERG current change (%, negative = inhibition) at 1uM” value of the first is higher: 10.1% for the first, 4.15% for the second.

Going from `Cc1cc(C)n2nc(-c3cnn(C)c3C(F)(F)F)cc2n1` to `CSc1nc2nc(-c3cccc(C(F)(F)F)c3)ccn2n1`, the “hERG current change (%, negative = inhibition) at 1uM” value rises from 1.96% to 4.47%.

First: Cn1c(=O)[nH]c(=O)c2c1nc(N1CCCCCC1)n2CCCSc1nnnn1-c1ccccc1
Second: C=CCn1nc(-c2ccccc2)c(N2CCCCC2)cc1=O
The “hERG current change (%, negative = inhibition) at 1uM” value of the first is lower: -14.2% for the first, 10% for the second.

Compared with `O=C(/C=C/c1ccccc1Cl)N1CCOCC1`, `COc1ccccc1/C=C/C(=O)N1CCC(c2ccccc2)C1` (centres unmarked) is higher in “hERG current change (%, negative = inhibition) at 1uM” value: 16.6% for the first, 19.3% for the second.

First: C/C(=N\O)c1c(C)c2ccccc2n1C
Second: CC(C)C(=O)NC(=S)Nc1ccccc1F
The “hERG current change (%, negative = inhibition) at 1uM” value of the first is lower: -3.85% for the first, 9.48% for the second.

First: CCCCCCNC(=O)CCCCCNS(=O)(=O)c1ccc(Br)cc1
Second: CCCCNS(=O)(=O)c1ccc2nc(SCC(N)=O)[nH]c2c1
The “hERG current change (%, negative = inhibition) at 1uM” value of the first is lower: 7.97% for the first, 10.2% for the second.

Compared with `CC(C)(C)C(=O)N(CCN(C(=O)C(C)(C)C)c1ccccc1)c1ccccc1`, `O=C(CCS(=O)(=O)Cc1ccccc1)NCCc1ccccc1` is lower in “hERG current change (%, negative = inhibition) at 1uM” value: 15.5% for the first, 11.4% for the second.

First: Cc1ccc(NC(=O)C2(c3cccs3)CCOCC2)cc1C
Second: O=C(COC(=O)c1cccs1)Nc1cc(S(=O)(=O)N2CCOCC2)ccc1Cl
The “hERG current change (%, negative = inhibition) at 1uM” value of the first is lower: 3.31% for the first, 6.72% for the second.

Going from `O=C1CC(Nc2ccc(N3CCOCC3)cc2)C(=O)N1C1CCCCC1` (centres unmarked) to `COc1ccccc1/C=C/C1(C(=O)NC2CCCC2)CC(=O)N1c1ccc(F)cc1` (centres unmarked), the “hERG current change (%, negative = inhibition) at 1uM” value rises from 6.85% to 10.9%.

Going from `Cc1ccc(-c2nc(CS(=O)CC(=O)NCCN3CCCCCC3)c(C)o2)cc1` (centres unmarked) to `Cc1ccc(NS(=O)(=O)c2cc(C(=O)NCCSC3CCCCC3)ccc2C)cc1`, the “hERG current change (%, negative = inhibition) at 1uM” value falls from 15.5% to -2.03%.

First: COc1c(F)c(F)c(C(=O)O)c(Nc2cc(C)cc(C)c2)c1F
Second: Cc1cc(C)cc(NC(=O)N2CCCN(c3ncccc3[N+](=O)[O-])CC2)c1
The “hERG current change (%, negative = inhibition) at 1uM” value of the first is higher: 11.3% for the first, 7.23% for the second.

First: CCNC(=O)/C(C#N)=C/c1c(N2CCN(c3ccc(OC)cc3)CC2)nc2c(C)cccn2c1=O
Second: C=CCn1c(SCC(=O)Nc2ccc(OC)cc2)nnc1-c1cnccn1
The “hERG current change (%, negative = inhibition) at 1uM” value of the first is higher: 18.6% for the first, 12.5% for the second.

Going from `Cc1cc(C(=O)COc2cccnc2[N+](=O)[O-])c(C)n1Cc1cccs1` to `Cc1ccc(C(=O)COC(=O)CSc2cccc3cccnc23)c(C)c1`, the “hERG current change (%, negative = inhibition) at 1uM” value rises from 2.44% to 7.69%.

First: CCOC(=O)C1(Cc2ccccc2)C(=O)N(CCCN(C)C)c2ccccc21.Cl (centres unmarked)
Second: O=C(Cc1ccccc1)Nc1cccc(-c2nc3ncccc3o2)c1
The “hERG current change (%, negative = inhibition) at 1uM” value of the first is lower: 5.69% for the first, 18.9% for the second.

First: COc1cc(OC)cc(C(=O)NC(=S)Nc2ccc(NC(=O)c3ccco3)cc2)c1
Second: O=C(CCNC(=O)c1ccco1)Nc1cccc(Br)c1
The “hERG current change (%, negative = inhibition) at 1uM” value of the first is higher: 6.89% for the first, -0.74% for the second.

Compared with `Cc1cc(OCCCCNC(C)C)cc(C(C)C)c1.O=C(O)C(=O)O`, `CC(C)COP(=O)(OCC(C)C)C(O)c1cccnc1` (centres unmarked) is higher in “hERG current change (%, negative = inhibition) at 1uM” value: -4.28% for the first, 9.56% for the second.

Compared with `COc1cccc(C(C)NC(=S)NCc2ccc(Cl)cc2)c1` (centres unmarked), `O=S(=O)(Nc1ccc(Cl)cn1)c1ccc(Cl)cc1` is higher in “hERG current change (%, negative = inhibition) at 1uM” value: 10.1% for the first, 16.8% for the second.

Compared with `CCc1ccc(C(=O)COC(=O)c2cnc(C)cn2)cc1`, `COCCn1c(N)c(C(=O)Nc2sc3c(c2C(=O)OC)CCCC3)c2nc3ccccc3nc21` is higher in “hERG current change (%, negative = inhibition) at 1uM” value: 8.58% for the first, 12.9% for the second.

Going from `O=C(/C=C/c1ccco1)NC(=S)Nc1cccc([N+](=O)[O-])c1` to `CC(/C=N/NC(=O)NC1CCCCC1)=C\c1ccccc1`, the “hERG current change (%, negative = inhibition) at 1uM” value rises from 13.3% to 35.6%.

First: O=C(CCc1nc(-c2ccccc2)no1)NCc1ccccc1CN1CCOCC1
Second: N#CCCN(C(=O)CSc1nc(-c2ccccc2)cn1N)c1ccc(F)cc1
The “hERG current change (%, negative = inhibition) at 1uM” value of the first is higher: 11.9% for the first, 8.5% for the second.

First: O=C1C=C(NCC2CCCO2)C2(CCCCC2)O1 (centres unmarked)
Second: C=CCC1(N(C(C)=O)c2ccccc2C)CCCCC1
The “hERG current change (%, negative = inhibition) at 1uM” value of the first is higher: 15.6% for the first, 7.18% for the second.

Compared with `Cc1cc2c(cc1C)-c1c(ssc1=Nc1ccc(S(N)(=O)=O)cc1)C(C)(C)N2`, `Cc1ccc(N2C(=O)Cc3ccccc3C2=O)cc1` is higher in “hERG current change (%, negative = inhibition) at 1uM” value: 9.34% for the first, 13.6% for the second.

First: C=CCOC(=O)C1=C[C@@H](c2csc3ccccc23)C[C@@H](OCCCCO)O1
Second: O=C1C(=O)N(CCCO)C(c2ccc(Br)cc2)/C1=C(\O)c1ccc(Br)cc1 (centres unmarked)
The “hERG current change (%, negative = inhibition) at 1uM” value of the first is higher: 11.8% for the first, 7.55% for the second.

First: C=CC(O)Cc1c(C)n[nH]c1C (centres unmarked)
Second: O=C(O)COc1ccccc1/C=N/NC(=O)CSc1nc2ccccc2n1Cc1ccc(Cl)cc1
The “hERG current change (%, negative = inhibition) at 1uM” value of the first is lower: -1.39% for the first, 14.2% for the second.

`C[C@]12C(=O)N(c3cccc(F)c3)C(=O)N1[C@@H]1c3ccccc3OC[C@@H]1[C@H]2c1ccccc1` was tested, and the “hERG current change (%, negative = inhibition) at 1uM” value was 13.2%.
